Results from article PMC4336329 (PLoS ONE, 2015).
The campaign covered roughly 310,000 compounds. About 14,000 (4.5%) showed an effect of 50% or more. The effect is printed as a negative number. The list shows a part of the results.

These molecules were tested against human ether-à-go-go-related gene (hERG) potassium channel (human, UniProt Q12809) (assay: primary screen, population patch clamp on CHO cells stably expressing hERG).
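Note: peak tail current of the secondary pulse compared with the same well before compound.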

human ether-à-go-go-related gene (hERG) potassium channel, sequence (Q12809 whole entry, looked up): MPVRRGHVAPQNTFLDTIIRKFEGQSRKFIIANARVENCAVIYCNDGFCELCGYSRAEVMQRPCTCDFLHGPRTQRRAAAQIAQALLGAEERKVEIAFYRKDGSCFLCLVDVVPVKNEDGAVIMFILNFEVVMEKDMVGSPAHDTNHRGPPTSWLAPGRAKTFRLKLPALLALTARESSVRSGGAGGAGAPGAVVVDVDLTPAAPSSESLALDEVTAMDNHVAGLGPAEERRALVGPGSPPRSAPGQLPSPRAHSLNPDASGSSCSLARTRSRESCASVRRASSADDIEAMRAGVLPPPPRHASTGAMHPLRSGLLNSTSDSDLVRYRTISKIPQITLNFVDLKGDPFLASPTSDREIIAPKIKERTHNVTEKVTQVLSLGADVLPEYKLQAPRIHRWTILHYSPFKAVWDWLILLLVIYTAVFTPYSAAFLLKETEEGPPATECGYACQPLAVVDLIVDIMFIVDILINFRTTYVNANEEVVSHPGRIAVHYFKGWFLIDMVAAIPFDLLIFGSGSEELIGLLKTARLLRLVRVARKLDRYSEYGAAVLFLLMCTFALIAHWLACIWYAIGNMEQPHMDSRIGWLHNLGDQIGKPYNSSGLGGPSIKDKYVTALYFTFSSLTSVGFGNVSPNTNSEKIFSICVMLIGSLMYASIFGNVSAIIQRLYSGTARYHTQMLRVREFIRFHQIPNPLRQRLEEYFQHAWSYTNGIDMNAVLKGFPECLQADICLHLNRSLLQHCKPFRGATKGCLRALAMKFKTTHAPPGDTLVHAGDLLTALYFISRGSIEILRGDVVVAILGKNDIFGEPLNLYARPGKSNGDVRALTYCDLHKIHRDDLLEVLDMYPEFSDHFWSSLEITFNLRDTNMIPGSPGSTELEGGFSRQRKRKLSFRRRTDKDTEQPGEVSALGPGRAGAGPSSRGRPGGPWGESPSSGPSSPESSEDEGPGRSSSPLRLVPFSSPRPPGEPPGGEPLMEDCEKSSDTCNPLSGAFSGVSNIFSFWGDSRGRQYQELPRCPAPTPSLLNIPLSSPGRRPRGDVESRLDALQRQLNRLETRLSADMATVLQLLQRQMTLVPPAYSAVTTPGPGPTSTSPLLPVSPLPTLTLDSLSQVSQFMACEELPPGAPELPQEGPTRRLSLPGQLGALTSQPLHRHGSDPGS

Question: With `CCC(C)Nc1nc2c(c(=O)n(C)c(=O)n2C)n1Cc1cccc(C)c1` (stereo not shown) as the molecule, how does the “hERG current change (%, negative = inhibition) at 10uM” value read?
Answer: -20.1%

Question: `Cc1ccc(C2=N/C(=C\N3CCCCC3)C(=O)O2)cc1` was tested. Which “hERG current change (%, negative = inhibition) at 10uM” value did it give?
Answer: -7.6%

Question: Which “hERG current change (%, negative = inhibition) at 10uM” value does the source give for `Cc1ccc(OCC(=O)N/N=C\c2cccs2)c([N+](=O)[O-])c1` here?
Answer: 1.33%

Question: For `Cc1ccc(S(C)(=O)=O)cc1C(=O)NC(C)C1CC2CCC1C2` (stereo not shown), which “hERG current change (%, negative = inhibition) at 10uM” value is on record?
Answer: 14.6%

Question: For `C[C@H]1[C@H](C)CC[C@]2(C)CC[C@]3(C)C(=CC[C@@H]4[C@@]5(C)CC[C@@H](O)[C@](C)(C(=O)O)[C@@H]5CC[C@]43C)[C@H]12`, which “hERG current change (%, negative = inhibition) at 10uM” value is on record?
Answer: 11.6%

Question: With `CC(NC(=O)C(=O)Nc1nccs1)c1ccccc1` (stereo not shown) as the molecule, how does the “hERG current change (%, negative = inhibition) at 10uM” value read?
Answer: 15.4%

Question: For `COC(=O)c1[nH]c2ccc(C)cc2c1NC(=O)C1=COCCO1`, which “hERG current change (%, negative = inhibition) at 10uM” value is on record?
Answer: 4.02%

Question: Which “hERG current change (%, negative = inhibition) at 10uM” value does the source give for `COc1cccc(-c2csc(N3CCN(C(=O)Nc4ccc(Cl)cc4)CC3)n2)c1` here?
Answer: 9.04%

Question: `O=C(NCCc1ccc(F)cc1)N1CCOCC1` was tested. Which “hERG current change (%, negative = inhibition) at 10uM” value did it give?
Answer: 6.53%

Question: For `O=C(CCc1cnccn1)NC1CCCc2c1cnn2-c1ccc(F)cc1F` (stereo not shown), which “hERG current change (%, negative = inhibition) at 10uM” value is on record?
Answer: -3.72%

Question: Which “hERG current change (%, negative = inhibition) at 10uM” value does the source give for `CCN(CC(=O)Nc1ccc(NC(C)=O)cc1)C(=O)c1c(-c2c(F)cccc2Cl)noc1C` here?
Answer: 23.2%

Question: `O=C(Nc1ccccc1C(=O)O)c1ccc(NC(=O)C2CC2)cc1` was tested. Which “hERG current change (%, negative = inhibition) at 10uM” value did it give?
Answer: 12.2%

Question: `Nc1nc(Nc2ccc(Cl)cc2)nc(NCCO)c1[N+](=O)[O-]` was tested. Which “hERG current change (%, negative = inhibition) at 10uM” value did it give?
Answer: 1.44%

Question: `COc1cc(/C=N/NC(=O)Cn2cnc3ccccc3c2=O)ccc1O` was tested. Which “hERG current change (%, negative = inhibition) at 10uM” value did it give?
Answer: 34.3%

Question: `CO/N=C(/CS(=O)(=O)c1ccc(C)cc1)c1ccc(OC)cc1` was tested. Which “hERG current change (%, negative = inhibition) at 10uM” value did it give?
Answer: 5.88%

Question: With `Cc1cc2ncn(-c3ncnc4sc(C)c(C)c34)c2cc1C` as the molecule, how does the “hERG current change (%, negative = inhibition) at 10uM” value read?
Answer: -21.2%

Question: How did the “hERG current change (%, negative = inhibition) at 10uM” value turn out when `CC(C)NC(=O)NC1C2CC3CC(C2)CC1C3` (stereo not shown) was run?
Answer: 8.3%

Question: For `O=C(C1CCN(S(=O)(=O)c2ccccc2F)CC1)N1CCc2ccccc2C1`, which “hERG current change (%, negative = inhibition) at 10uM” value is on record?
Answer: -27.8%

Question: For `COCCCn1c(-c2ccc(S(=O)(=O)N3CCOCC3)cc2)csc1=Nc1ccccc1`, which “hERG current change (%, negative = inhibition) at 10uM” value is on record?
Answer: -11%

Question: With `NS(=O)(=O)c1ccc(CCNC(=O)c2ccc(Cl)s2)cc1` as the molecule, how does the “hERG current change (%, negative = inhibition) at 10uM” value read?
Answer: 1.25%

Question: With `Cc1ccc(-c2ccc(/C=N/N=C3/NC(=O)C(CC(=O)O)S3)o2)c([N+](=O)[O-])c1` (stereo not shown) as the molecule, how does the “hERG current change (%, negative = inhibition) at 10uM” value read?
Answer: 11.1%

Question: Which “hERG current change (%, negative = inhibition) at 10uM” value does the source give for `CC(=O)c1c(C)[nH]c(C(=O)Nc2cccc(C)n2)c1C` here?
Answer: 9.94%

Question: With `Cc1cccc(NC(=S)N2CCC(O)CC2)c1C` as the molecule, how does the “hERG current change (%, negative = inhibition) at 10uM” value read?
Answer: 10.4%

Question: For `C[C@H](NC(=O)N1CCn2c1nc1ccccc12)C(=O)NCc1ccccc1`, which “hERG current change (%, negative = inhibition) at 10uM” value is on record?
Answer: -13.6%

Question: `COC(=O)[C@H](Cc1ccccc1)NC(=O)Nc1ccc(S(N)(=O)=O)cc1` was tested. Which “hERG current change (%, negative = inhibition) at 10uM” value did it give?
Answer: 0.187%

Question: Which “hERG current change (%, negative = inhibition) at 10uM” value does the source give for `O=C(COc1ccc(Br)cc1Cl)NC(=O)NCc1ccccc1` here?
Answer: -0.783%

Question: How did the “hERG current change (%, negative = inhibition) at 10uM” value turn out when `COc1ccc(NC(=O)CCNS(=O)(=O)c2ccc3c(c2)CC(C)N3C(C)=O)cc1` (stereo not shown) was run?
Answer: -2.85%

Question: For `COc1ccc(C)cc1S(=O)(=O)N(CC(=O)Nc1cccc([N+](=O)[O-])c1)c1ccccc1`, which “hERG current change (%, negative = inhibition) at 10uM” value is on record?
Answer: -2.22%

Question: With `COc1c(/C=N/NS(=O)(=O)c2ccc(C)cc2)c(CCN(C)C(C)=O)cc2c1OCO2` as the molecule, how does the “hERG current change (%, negative = inhibition) at 10uM” value read?
Answer: 8.62%

Question: With `Cc1cccc(-c2nnc(SCC(=O)C(C)(C)C)n2C)c1` as the molecule, how does the “hERG current change (%, negative = inhibition) at 10uM” value read?
Answer: -10%

Question: Which “hERG current change (%, negative = inhibition) at 10uM” value does the source give for `O=C(Nc1cccc(Cl)c1)c1nc[nH]c1C(=O)N1CCN(c2ccccc2)CC1` here?
Answer: 8.06%

Question: Which “hERG current change (%, negative = inhibition) at 10uM” value does the source give for `Cc1ccccc1NC(=O)Cc1nc(COC(=O)CCC(=O)c2ccccc2)cs1` here?
Answer: -39.7%

Question: `CCOP(=O)(c1ccc(N(C)C)cc1)C(O)c1cc(OC)c(OC)c(OC)c1` (stereo not shown) was tested. Which “hERG current change (%, negative = inhibition) at 10uM” value did it give?
Answer: 4.4%

Question: With `O=C(C[C@H]1C(=O)N(Cc2ccccc2)C[C@@H]1Cc1ccccc1)Nc1ccccc1` as the molecule, how does the “hERG current change (%, negative = inhibition) at 10uM” value read?
Answer: -4.41%

Question: `CCOC(=O)C1CCN(C(=O)c2cccc(S(=O)(=O)N(C)C3CCCCC3)c2)CC1` was tested. Which “hERG current change (%, negative = inhibition) at 10uM” value did it give?
Answer: -30.5%

Question: With `CCc1nn(C(C)C(=O)NCc2cccc(Cl)c2)c(=O)c2cc3occc3n12` (stereo not shown) as the molecule, how does the “hERG current change (%, negative = inhibition) at 10uM” value read?
Answer: 2.8%

Question: For `COc1cc(OC)c(C(=O)CCC(=O)O)cc1OC`, which “hERG current change (%, negative = inhibition) at 10uM” value is on record?
Answer: -2.19%

Question: For `CC(=O)NCCNS(=O)(=O)c1ccc(C)c([N+](=O)[O-])c1`, which “hERG current change (%, negative = inhibition) at 10uM” value is on record?
Answer: 12.6%

Question: Which “hERG current change (%, negative = inhibition) at 10uM” value does the source give for `CCCn1cnc2c(c1=O)c1nc3ccccc3nc1n2CCc1ccccc1` here?
Answer: 5.16%

Question: Which “hERG current change (%, negative = inhibition) at 10uM” value does the source give for `CCCCn1c(N)c(N(CCOC)C(=O)c2cc(=O)[nH]c3ccccc23)c(=O)[nH]c1=O` here?
Answer: 12.5%

Question: For `Cl.O=C(c1ccco1)N1CCN(C(c2ccc(F)cc2)c2nnnn2Cc2cccs2)CC1` (stereo not shown), which “hERG current change (%, negative = inhibition) at 10uM” value is on record?
Answer: -57%

Question: For `Cc1ncc(CO)c(/C=N/NC(=O)c2ccc(Br)cc2)c1O`, which “hERG current change (%, negative = inhibition) at 10uM” value is on record?
Answer: -1.67%

Question: Which “hERG current change (%, negative = inhibition) at 10uM” value does the source give for `Cc1cc(C)c(C(=O)OCC(=O)NCc2cccs2)c(C)c1` here?
Answer: -3.84%

Question: How did the “hERG current change (%, negative = inhibition) at 10uM” value turn out when `CN1C2CCC1CC(OC(c1ccccc1)c1ccccc1N)C2` (stereo not shown) was run?
Answer: -68.5%

Question: Which “hERG current change (%, negative = inhibition) at 10uM” value does the source give for `O=C(COc1ccccc1Cl)c1ccc2c(c1)CCCC2` here?
Answer: -0.256%

Question: With `O=C(N/N=C\c1cc(Br)ccc1O)c1ccc(S(=O)(=O)N2CCCCC2)cc1` as the molecule, how does the “hERG current change (%, negative = inhibition) at 10uM” value read?
Answer: 6.47%

Question: Which “hERG current change (%, negative = inhibition) at 10uM” value does the source give for `CCCCN(CC)CCNC(=O)c1ccc2c(Cl)c3c(nc2c1)CCC3` here?
Answer: -30%

Question: Which “hERG current change (%, negative = inhibition) at 10uM” value does the source give for `O=C(NCCN1CCOCC1)c1cc(Cl)ccc1[N+](=O)[O-]` here?
Answer: 9.91%

Question: `O=C1CC(/C=C/c2ccccc2)=Nc2ccccc2N1` was tested. Which “hERG current change (%, negative = inhibition) at 10uM” value did it give?
Answer: 24.1%

Question: Which “hERG current change (%, negative = inhibition) at 10uM” value does the source give for `COc1ccc(NC(=O)c2cn3c(nc4ccccc43)c(C#N)c2C)cc1` here?
Answer: 3.29%

Question: How did the “hERG current change (%, negative = inhibition) at 10uM” value turn out when `CC1Cc2ccccc2N1CC(=O)NC(=O)NC1CCCC1` (stereo not shown) was run?
Answer: -13.5%

Question: `COc1ccc(CC(=O)Nc2cccc(-c3csc(C)n3)c2)cc1` was tested. Which “hERG current change (%, negative = inhibition) at 10uM” value did it give?
Answer: 16.6%

Question: Which “hERG current change (%, negative = inhibition) at 10uM” value does the source give for `COc1cccc(NC(=O)Cn2c(CCC(=O)O)ccc2-c2cccs2)c1` here?
Answer: 12.4%

Question: Which “hERG current change (%, negative = inhibition) at 10uM” value does the source give for `O=S(=O)(c1ccccc1)N1CCNCC1` here?
Answer: 0.901%

Question: With `CC1(C)NC(=O)N(CCOc2cccc(Cl)c2Cl)C1=O` as the molecule, how does the “hERG current change (%, negative = inhibition) at 10uM” value read?
Answer: -2.28%
